Holding throughout (assay): cell-based or functional assay
Assay [1] has as its target T1, TGF-β3 (UniProt P10600 301-412).
T1 sequence (looked up): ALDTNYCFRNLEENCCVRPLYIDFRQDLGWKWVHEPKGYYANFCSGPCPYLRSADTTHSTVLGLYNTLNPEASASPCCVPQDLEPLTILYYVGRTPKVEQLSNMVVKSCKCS

The target in assay [2] is T2, TGF-β2 (UniProt P61812 303-414).
T2 sequence (looked up): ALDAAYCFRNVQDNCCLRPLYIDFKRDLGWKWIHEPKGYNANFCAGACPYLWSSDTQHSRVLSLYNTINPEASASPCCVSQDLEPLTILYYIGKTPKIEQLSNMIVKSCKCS

The target in assay [3] is T3, TGF-β1 (UniProt P01137 in part).
Assay [4] addresses T1, TGF-β3. This is another data set of the same source.
Assay [5] addresses T2, TGF-β2. This is another data set of the same source.
Assay [6] has as its target T3, TGF-β1. This is another data set of the same source.

T3 sequence (P01137 279-390 limits assumed): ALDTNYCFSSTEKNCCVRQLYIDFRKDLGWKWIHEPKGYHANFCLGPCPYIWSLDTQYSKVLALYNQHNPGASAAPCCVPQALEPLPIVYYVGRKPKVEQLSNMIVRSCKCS

B1: PCT-0026 (Fc fusion)
chain: ADNGAVKFPQLCKFCDVRFSTCDNQKSCMSNCSITSICEKPQEVCVAVWRKNDENITLETVCHDPKLPYHDFILEDAASPKCIMKEKKKPGETFFMCSCSSDECNDNIIFSEEYNTSNPDGLGPVESSPGHGLDTAAAGPEPGALCELSPVSASHPVQALMESFTVLSGCASRGTTGLPQEVHVLNLRTAGQGPGQLQREVTLHLNPISSVHIHHKSVVFLLNSPHPLVWHLKTERLATGVSRLFLVSEGSVVQFSSANFSLTAETEERNFPHGNEHLLNWARKEYGAVTSFTELKIARNIYIKVGEDQVFPPKCNIGKNFLSLNYLAEYLQPKAAEGCVMSSQPQNEEVHIIELITPNSNPYSAFQVDITIDIRPSQEDLEVVKNLILILKSKKSVNWVIKSFDVKGSLKIIAPNSIGFGKESERSMTMTKSIRDDIPSTQGNLVKWALDNGYSPITSYTMAPVANRFHLRLENNEEMGDEEVHTIPPELRILLDPGALPQLCKFCDVRFSTCDNQKSCMSNCSITSICEKPQEVCVAVWRKNDENITLETVCHDPKLPYHDFILEDAASPKCIMKEKKKPGETFFMCSCSSDECNDNIIFSEEYNTSNPDLLLVIFQVTGISLLPPLGGGGS[in this place human IgG1 Fc]DDDDDDDDDD
With B1, the “EC50 for neutralization of TGF-β” value in assay [1] was 4.2 picomol/L; in assay [2], 105 picomol/L; in assay [3] it was 1.9 picomol/L.

B2: PCT-0020 (Fc fusion)
chain: NGAVKFPQLCKFCDVRFSTCDNQKSCMSNCSITSICEKPQEVCVAVWRKNDENITLETVCHDPKLPYHDFILEDAASPKCIMKEKKKPGETFFMCSCSSDECNDNIIFSEEYNTSNPDGLGPVESSPGHGLDTAAAGPEPSTRCELSPINASHPVQALMESFTVLSGCASHGTTGLPREVHVLNLRSTDQGPGQRQREVTLHLNPIASVHTHHKPIVFLLNSPQPLVWRLKTERLAAGVPRLFLVSEGSVVQFPSGNFSLTAETEERNFPQENEHLLRWAQKEYGAVTSFTELKIARNIYIKVGEDQVFPPTCNIGKNFLSLNYLAEYLQPKAAEGCVLPSQPHEKEVHIIELITPSSNPYSAFQVDIIVDIRPAQEDPEVVKNLVLILKSKKSVNWVIKSFDVKGNLKVIAPNSIGFGKESERSMTMTKLVRDDIPSTQENLMKWALDAGYRPVTSYTMAPVANRFHLRLENNEEMRDEEVHTIPPELRILLDPDKLPQLCKFCDVRFSTCDNQKSCMSNCSITSICEKPQEVCVAVWRKNDENITLETVCHDPKLPYHDFILEDAASPKCIMKEKKKPGETFFMCSCSSDECNDNIIFSEEYNTSNPDLLLVIFQVTGISLLPPLGGGGS[in this place human IgG1 Fc]DDDDDDDDDD
In the case of B2, the “EC50, TGF-β isoform neutralization” value in assay [4] came out at 0.0105 nM; in assay [5] it was 0.071 nM; in assay [6], 0.0171 nM. Besides, the “Fold 0020/0016 (EC50 ratio against PCT-0016NT)” value in assay [4] stood at 3.3 fold; in assay [5], 17.4 fold; in assay [6], 2.6 fold. The entries for the “EC50 for neutralization of TGF-β” value in assay [1], in assay [2] and in assay [3] were 8 picomol/L, 55.5 picomol/L and 8.8 picomol/L, respectively.

For the origin of these results see patent US20190248881A1 (PRECITHERA, published 2019).
